# According to the supplement of paper PMC4166925:
# ± gives the standard deviation of the averaged measurements. Over roughly 33,000 sequences, “E-score (dimensionless, -0.5 to 0.5)” has its median near -0.046; the highest 2% begin near 0.36. The list shows a part of the results.
# Test system: T1, SpTbr T-box DNA-binding domain (GST fusion)
# T1 sequence: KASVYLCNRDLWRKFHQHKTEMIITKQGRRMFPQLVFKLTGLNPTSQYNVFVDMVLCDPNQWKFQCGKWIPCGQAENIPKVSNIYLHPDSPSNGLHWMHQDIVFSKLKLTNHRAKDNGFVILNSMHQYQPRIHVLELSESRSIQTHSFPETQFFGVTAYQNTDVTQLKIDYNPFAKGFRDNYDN
# Experiment: PBM E-score of 8-mer (E-score (dimensionless, -0.5 to 0.5)); Tbr is Tbrain of the sea star Patiria miniata (Pm) or the sea urchin Strongylocentrotus purpuratus (Sp); higher = stronger binding preference; most listed sequences are background and not binding sites
# Conditions: the construct has about 5 more residues each side
# Method in brief: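 Expression of GST-fused Tbr T-box DNA-binding domains, each holding the full T-box plus roughly five flanking residues, was carried out in BL21 E. coli at 20 °C, with purification by glutathione affinity chromatography. Universal Agilent arrays made double-stranded by primer extension were incubated with the protein at 200 nM in PBS (pH 7.5), then scanned and quantified. All ungapped 8-mers were scored from probe intensities, and each received an enrichment E-score from the Universal PBM Analysis Suite, averaged over duplicate arrays.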
row,Sequence,PBM E-score of 8-mer
1,CACAAGCG,0.12 ± 0.021
2,GCTCCTGA,-0.172 ± 0.096
3,GAGAGAAC,0.109 ± 0.073
4,ACTGGAAT,-0.231 ± 0.01
5,CGCAGGGC,0.11 ± 0.021
6,CGGTTGCC,-0.0673 ± 0.047
7,CGGAATAG,-0.28 ± 0.039
8,TATCTTCA,0.0176 ± 0.064
9,TCAAATAA,-0.00673 ± 0.035
10,ATTTCTCA,0.0557 ± 0.057
11,ATGGGTTC,-0.166 ± 0.048
12,AGGGTATA,0.0465 ± 0.026
13,ACTGTAGA,0.0389 ± 0.042
14,CGGGGTAC,0.0318 ± 0.03
15,CAGGTCGC,0.225 ± 0.038
16,CAGCGTAC,-0.168 ± 0.039
17,CTCCTTTC,-0.154 ± 0.023
18,AAGCTTTA,-0.199 ± 0.049
19,GACCCAAC,-0.145 ± 0.029
20,CCAAGGCA,-0.112 ± 0.0028
21,ACCGTGTC,0.107 ± 0.0065
22,ACACTTCC,0.417 ± 0.016
23,AATGTCGC,0.162 ± 0.004
24,GGGTCGAC,-0.131 ± 0.036
25,CTCCGGCA,0.0686 ± 0.041

row,Sequence,PBM E-score of 8-mer
1,GGTCGCAA,0.208 ± 0.029
2,ATCACTTG,0.169 ± 0.064
3,GCGGGGGA,-0.0377 ± 0.042
4,CCATCACC,0.214 ± 0.011
5,ATATAGGA,-0.218 ± 0.035
6,GCCTATCA,0.134 ± 0.052
7,ATGTGATC,0.1517 ± 0.00082
8,CGTATAAA,-0.0902 ± 0.0068
9,GCGGTGAC,0.136 ± 0.084
10,TAAGGCCA,-0.136 ± 0.023
11,CTACGCGC,0.197 ± 0.055
12,GCGATTGA,0.129 ± 0.023
13,ACAGTTCT,0.109 ± 0.037
14,CGAGCAAG,-0.0831 ± 0.035
15,TCTGCGAA,0.202 ± 0.04
16,ACGTGTCA,0.458 ± 0.0068
17,ACTCAGTA,0.0241 ± 0.0054
18,GACTCAGC,-0.134 ± 0.014
19,CCACAAGC,-0.00571 ± 0.011
20,CAACGCCG,0.124 ± 0.066
21,CCGTGTAA,0.176 ± 0.034
22,CTACTCAA,-0.0464 ± 0.031
23,AAGGCACC,0.0848 ± 0.0052
24,GCGGGGCA,-0.0613 ± 0.16
25,CAGCTTTC,0.113 ± 0.051

row,Sequence,PBM E-score of 8-mer
1,AACAGAAG,-0.19 ± 0.051
2,GCATCTAC,-0.113 ± 0.052
3,CTGCTCTC,-0.124 ± 0.03
4,GACGACCC,0.00875 ± 0.042
5,CGCCGTAC,-0.192 ± 0.081
6,ACTCCGAG,-0.135 ± 0.021
7,ACCTCGGG,-0.0119 ± 0.054
8,GAGGGTAA,-0.217 ± 0.039
9,ACTCAATG,-0.0504 ± 0.02
10,GTTTTATA,-0.234 ± 0.094
11,ACGATTCT,-0.0459 ± 0.089
12,ACAAAACC,-0.0407 ± 0.031
13,GACAGATC,0.0373 ± 0.0047
14,AACTCCCT,-0.203 ± 0.064
15,CATTTATC,-0.0576 ± 0.052
16,AAGCGGAG,-0.184 ± 0.048
17,CTCCGTAA,-0.0525 ± 0.031
18,CGCGACAG,0.292 ± 0.037
19,CGCACAGA,-0.173 ± 0.052
20,CCCATCTC,-0.0682 ± 0.07
21,AATGTACC,-0.134 ± 0.014
22,TGAACTAA,0.00895 ± 0.033
23,CTCGAGAG,-0.0479 ± 0.0086
24,GGATAACC,0.0395 ± 0.035
25,AAGTTATC,0.0893 ± 0.0073

row,Sequence,PBM E-score of 8-mer
1,CCTACTCA,0.165 ± 0.084
2,CGTTTCCC,0.0811 ± 0.074
3,GTAGGAGA,-0.248 ± 0.032
4,AAAGACAG,-0.197 ± 0.0058
5,CCCAGTAG,-0.0339 ± 0.064
6,GGCATAAA,-0.0744 ± 0.027
7,GACCTGAC,0.0333 ± 0.08
8,ACAGTGAA,0.151 ± 0.018
9,AGAGGGCG,0.05 ± 0.019
10,GAGGCCCA,-0.307 ± 0.041
11,AGCCCCTA,-0.0793 ± 0.026
12,GAGATCGC,0.266 ± 0.024
13,ACGGTGAG,0.0305 ± 0.02
14,CATCCTGA,-0.0422 ± 0.062
15,CCATGGTA,-0.121 ± 0.015
16,CCCCCAAA,-0.3559 ± 0.0013
17,TACCGCAA,0.0292 ± 0.028
18,CCTCTGAG,0.0438 ± 0.017
19,ACACGTTG,0.348 ± 0.029
20,AGAAACGA,-0.122 ± 0.024
21,ATGCCCCG,-0.15 ± 0.0025
22,ACATCCCC,0.117 ± 0.027
23,CCTAAAGA,-0.0986 ± 0.067
24,GTAATCGA,0.0348 ± 0.0063
25,AGTGGCTA,-0.0285 ± 0.014

row,Sequence,PBM E-score of 8-mer
1,ACGAACAC,0.129 ± 0.011
2,TGGAAACA,-0.024 ± 0.027
3,GAGATTCA,-0.0564 ± 0.084
4,AGGCCTTA,-0.177 ± 0.084
5,TATTATCA,0.0502 ± 0.099
6,CAATGACG,0.17 ± 0.034
7,ATGTAAGC,-0.0318 ± 0.03
8,CATGCTTA,0.0696 ± 0.05
9,TCTAATCA,0.0383 ± 0.068
10,GGATTTTA,-0.176 ± 0.043
11,CTACGTAG,-0.173 ± 0.073
12,AAGCGTCT,0.0504 ± 0.032
13,AAATCCTG,-0.0611 ± 0.024
14,CACCGTAC,0.159 ± 0.03
15,ACTATCAA,0.0394 ± 0.032
16,CCAGCCGA,0.0686 ± 0.0022
17,CGGAACTC,-0.192 ± 0.057
18,ACAAGCGG,-0.0319 ± 0.046
19,AATAGACC,-0.2939 ± 0.0013
20,GATGTCAC,0.296 ± 0.023
21,ACCGTAAT,-0.152 ± 0.038
22,ATGAGAAC,-0.0381 ± 0.053
23,ATCATGAC,-0.131 ± 0.013
24,AAGATCTT,-0.108 ± 0.099
25,CTTTTTAA,-0.0492 ± 0.15

row,Sequence,PBM E-score of 8-mer
1,CGGCGTCA,0.223 ± 0.02
2,CTCTGCAG,-0.104 ± 0.035
3,CCCTTGAC,-0.0871 ± 0.043
4,CAACTATG,-0.0434 ± 0.046
5,CGATTTCA,0.04967 ± 0.00043
6,CAGGACTA,-0.191 ± 0.029
7,CTCGTTTA,-0.205 ± 0.12
8,CGTTTCCA,0.0866 ± 0.0024
9,CTAGGGCC,-0.325 ± 0.0048
10,CCGATCAC,0.198 ± 0.02
11,TAAACCGA,-0.151 ± 0.035
12,AGGGCCAT,-0.2 ± 0.047
13,GTTCGTCA,0.0923 ± 0.0096
14,AGCCCTGC,-0.123 ± 0.042
15,CGTGGGGA,-8e-05 ± 0.017
16,GCAGGTGA,0.414 ± 0.011
17,CTCATGTC,-0.152 ± 0.051
18,AACGGCTT,0.0898 ± 0.092
19,AGCCATGG,-0.197 ± 0.03
20,TACGGCTA,-0.131 ± 0.04
21,ATCGGTTC,-0.0281 ± 0.04
22,AGCCTTCC,-0.16 ± 0.026
23,CAGATGAG,-0.226 ± 0.046
24,AGAGCTGG,-0.174 ± 0.068
25,GGGGCCAA,-0.108 ± 0.067

row,Sequence,PBM E-score of 8-mer
1,GACTGTAA,0.0175 ± 0.046
2,GGAGCCCA,-0.193 ± 0.018
3,GCCTTTGA,-0.263 ± 0.024
4,GTAGTTAA,-0.0742 ± 0.023
5,ACTTAGGA,-0.228 ± 0.026
6,AGTAGATG,-0.13 ± 0.033
7,CAGGCCAC,-0.16 ± 0.023
8,AGCTCCGA,-0.0358 ± 0.0032
9,CCGCTAAG,0.123 ± 0.036
10,CGGGCCCG,0.118 ± 0.0044
11,CAGACGCG,0.106 ± 0.014
12,ACCGGGAA,-0.00407 ± 0.018
13,GGGAGTAA,-0.125 ± 0.03
14,AGGGGTAC,-0.388 ± 0.0051
15,CTATTCAA,-0.0432 ± 0.04
16,GTGACACA,0.403 ± 0.0044
17,AGCTTGGC,-0.191 ± 0.011
18,ACTCATTG,-0.195 ± 0.021
19,AGCACGCG,0.184 ± 0.084
20,GTAGCCCA,-0.326 ± 0.024
21,GCAGGGGA,-0.158 ± 0.0024
22,AGCCTGGC,-0.0911 ± 0.098
23,CGGAACGC,-0.0517 ± 0.0057
24,CGGACCTC,-0.241 ± 0.032
25,GCTATAGA,-0.117 ± 0.04

row,Sequence,PBM E-score of 8-mer
1,CCGGAGTC,-0.22 ± 0.022
2,AGTTTAAC,0.061 ± 0.052
3,GATGCGGC,-0.00677 ± 0.059
4,CGAGACTA,-0.0467 ± 0.079
5,CGCTTGGC,0.0461 ± 0.027
6,AGTAGACC,-0.227 ± 0.012
7,CACCCCTA,0.212 ± 0.022
8,CTGCCTGC,-0.0472 ± 0.012
9,CACCGCCG,0.151 ± 0.1
10,CAATATGA,-0.0419 ± 0.055
11,ATACCCTA,-0.00277 ± 0.015
12,AATCTCTA,-0.14 ± 0.0019
13,CGTTGCAA,-0.0447 ± 0.069
14,GCTAAGAC,0.107 ± 0.024
15,CTGTATCC,-0.308 ± 0.015
16,CAAGCTCG,0.179 ± 0.07
17,ATAAACGC,-0.0649 ± 0.055
18,CCGTTGGC,0.114 ± 0.049
19,AACGAGGT,0.0562 ± 0.023
20,GTGTTTTA,0.153 ± 0.063
21,CCTCCGGA,-0.273 ± 0.037
22,CCGAGCAG,-0.248 ± 0.051
23,AACACCAG,0.317 ± 0.028
24,ATTAACCA,-0.105 ± 0.04
25,TAGGGGGA,-0.358 ± 0.076

row,Sequence,PBM E-score of 8-mer
1,AACTGGTA,-0.149 ± 0.097
2,TTTCAAAA,-0.319 ± 0.022
3,TCAGCAGA,-0.0115 ± 0.056
4,AGTACACT,-0.0848 ± 0.0016
5,GTTCCGAA,-0.0971 ± 0.012
6,ACGAGGCT,-0.0815 ± 0.027
7,CTAATGGA,-0.23 ± 0.029
8,CTATATTC,-0.11 ± 0.0049
9,CCCCGATC,-0.114 ± 0.068
10,GGGCATGA,-0.114 ± 0.095
11,CGGTCTCA,0.0133 ± 0.015
12,GTCCCTCA,-0.0661 ± 0.0065
13,AGTTAAAT,0.0309 ± 0.029
14,GTCAAGCA,0.0528 ± 0.058
15,TAAGTGGA,-0.154 ± 0.021
16,AGTCGCTG,0.00855 ± 0.018
17,ATTCAACC,-0.292 ± 0.017
18,ACAGTAAG,-0.0572 ± 0.039
19,ATCTCCAA,-0.042 ± 0.011
